Some of the results follow.
What follows are sequences tested on PfHDP1 homeodomain (GST-tagged) (assay: gcPBM binding intensity (ln(normalized median fluorescence intensity)); higher = stronger DNA binding).
Outline: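 An Agilent 4 × 180k array carrying primer-extended double-stranded 36-bp intergenic genomic probes and negative controls received GST-tagged P. falciparum DNA-binding domains expressed in E. coli, about 25 μg on average, for 1 h. The binding buffer contained 1× PBS, 1% milk, 0.2 mg/ml BSA, 0.5% salmon testes DNA and 0.03% Triton X-100. Binding intensity is the top Masliner-normalised natural-log median intensity across replicate spots of either probe orientation, read after Alexa488 anti-GST antibody staining and a 488 nm scan.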

Row | Sequence | gcPBM binding intensity (ln)
1 | TGGAACCTTTAAAATACACACCCAAATCCTTTGAAA [CACACA_site7671] | 6.43
2 | AAAAAAAAAAAAAACACACACATATAAATATAAATA [CACACA_site6972] | 6.58
3 | TCATATATTCAAAAATTTAAAGTTAATAAAACTTGA [CACACA_negctrl_site1546] | 5.91
4 | ATTGGACTATAAATAGGTACACATATATATATATAT [XGTACX_site7562] | 9.33
5 | TTTGTAATAAATAAGAGTACAAGTATGGTTCCACTA [XGTACX_site2579] | 6.08
6 | TGTATACATTCTGAATGTACGGAACACCTCATAACT [XGTACX_site7240] | 6.4
7 | AATATATGGTTTCATGATATTAAATTCAAAATAATG [CACACA_negctrl_site318] | 6.03
8 | TATAAAATGATGATATGTACTTATGTAGTTTTTTTA [XGTACX_site8711] | 5.96
9 | TTTTCATTTGTGACAGTGCAAAATGTTATATTAAAA [GTGCAC_site9647] | 9.22
10 | AATAATACATCCTTAGTGCAGAAATAAAAATTAAGC [GTGCAC_site9955] | 7.44
11 | TATTTATTGTGACACTTATATTATTTTATGATTAAA [CACACA_negctrl_site525] | 6.53
12 | TTTCAAATTTAATACACACACAAGTATATATTTATC [CACACA_site3947] | 6.57
13 | TTGTGTTATCACACGAAGGGGATAAGACATAAATGT [TGCATGCA_negctrl_site368] | 6.43
14 | TATATATAAAAACACACACACACACCCTATAATTAT [CACACA_site4063] | 7.18
15 | TTATATTATGTTCAATCAAAAATTATTTTTAAAAAA [XGTACX_negctrl_site595] | 6.2
16 | TTTTTGTTTGAACACTGTACGTATAAATATAAAAGT [XGTACX_site6476] | 6.56
17 | GAAAAAAGAAAAAAAAGTACACACATGTATATTAAT [XGTACX_site5265] | 6.48
18 | AATGTGTTTTTTTTTTTTTTTTTTTTCAATCTCTAT [CACACA_negctrl_site794] | 6.07
19 | AATGTACACCCACCCACACACAAACAAATATATATA [CACACA_site5521] | 7.73
20 | AAAAATAATTATTCGTGTACAAAAAAAAAAATATAA [XGTACX_site439] | 6.59
21 | GGAATATATATACATACACACATATATATATATATA [CACACA_site1666] | 9.32
22 | ATGCAAATGTGCATCACACACACTAATGGGTATGTA [CACACA_site2893] | 9.01

Row | Sequence | gcPBM binding intensity (ln)
23 | AAAGTAATAATGATTTGTACATATATATATATATAT [XGTACX_site8821] | 9.4
24 | AGCTTCATATTATGGAGTACTATTAAAAATAAATAA [XGTACX_site2649] | 6.35
25 | AAATATAACATCATCACACACATATACTTTATATGC [CACACA_site1126] | 6.4
26 | AGATATTATAAAATATGTACATATATATATATATAT [XGTACX_site2088] | 9.22
27 | TAATTAGATTATTTTTGTACATATTATTATAGGTTA [XGTACX_site2077] | 6.29
28 | TTATCTTTTTTCGTTTGTACGTAACCATATTACTAT [XGTACX_site8853] | 6.6
29 | ATTTTTTATGTTAATGCATGCTCATGTGTATTTCAT [TGCATGCA_site751] | 7.72
30 | ATTATACATATTATATGTACATATATAAATAAATAA [XGTACX_site7076] | 6.43
31 | TTATTTTTATATTTTAATTTTAAAAAAATTTTAATT [CACACA_negctrl_site777] | 5.98
32 | TTTCTATTTATTAATACATGCAAAATAAAGTAAAGT [TGCATGCA_site209] | 6.76
33 | ATATATCAATATGGAATATATATATATATATATATA [TGCATGCA_negctrl_site502] | 9.48
34 | TTTTGGTTTTGTTCTACACACATAAAAAAAAAAAAG [CACACA_site2276] | 6.41
35 | TATATATATATATATATATTTATGTATTTATTTAAT [TGCATGCA_negctrl_site179] | 9.35
36 | ATATATATAAATAAATGTACATAAATAATATATTAT [XGTACX_site5419] | 6.85
37 | AAAAAAAAAAAAAAAAGTACAAGCATTGCGTTTTAA [XGTACX_site6075] | 6.54
38 | AGAAAAAAAAAAAAAAAAATATATATATATATATAT [TGCATGCA_negctrl_site411] | 9.35
39 | GTATATATATACCATTGTACTTTCGTAAAAATATTT [XGTACX_site4846] | 6.66
40 | AAAAAAAAAAAAAAAACACACATACACGCACGCACA [CACACA_site7569] | 7.28
41 | TTAATTTATTATCTTTGTACACAATTAAAAAAAAAA [XGTACX_site3469] | 6.21
42 | TTTTATTATAATAATTGTACAAAAATTATTTAATAT [XGTACX_site6054] | 6.18
43 | ATAAATATACATTATACCGACCATGTGGATATTATA [XGTACX_negctrl_site241] | 6.46
44 | GTATATATGTATATGTGTACACATATTCTTAACTCA [XGTACX_site309] | 7.09

Row | Sequence | gcPBM binding intensity (ln)
45 | ATATAAATTGGCAATAGTACATAAAGGCATAGAAAG [XGTACX_site2674] | 7.46
46 | AAATTACACATCCATACACACATATTTTTTTTAATT [CACACA_site5242] | 7.04
47 | AGCTGAAAAAAAAGCTTGCACACGTATTTGCTTTAT [CACACA_site1512] | 8.26
48 | AATATGTAGTAATCAAGTACTAATGTCTTAATTCGG [XGTACX_site308] | 6.56
49 | GTTTTTTATATAAGGTGGTCAACATTGTAATGTTAA [XGTACX_site3204] | 6.64
50 | CATATTATATTCTGCTTACACACATATATATATATA [CACACA_site3059] | 9.41
51 | AATAATAAGAATAACGCATGCACATATAATATAGAA [TGCATGCA_site3] | 8.24
52 | TTTTTTTGTTATATCCTGCACTTCTTAACTATATTA [GTGCAC_site9807] | 7.64
53 | TCATAGGTTCAAAAGGGTACATTAATACATACATAT [XGTACX_site2236] | 6.45
54 | AAATAAAAAAAGGGAACATGCAATATGTACAAATAT [TGCATGCA_site869] | 7.49
55 | GTAGTTACATATAGGGTGCTCCAATAGTTGACCTCG | 6.66
56 | TCTTTTTTCTTTTTTTCACACATTATTTTTTAAATA [CACACA_site5197] | 6.58
57 | CATATATATTGATATGCACACCTATGTATTGATGTA [CACACA_site8269] | 9.47
58 | AGCATTTTTCATTTTGCACACATGTTTTATGGGTAT [CACACA_site5839] | 10.5
59 | ACGATGAATATGTAAAGTACGCAAATGTAACAATAT [XGTACX_site728] | 7.2
60 | AATAATAGAAGCACCCACCCACCACCACCCACACAT [CACACA_negctrl_site1033] | 7.06
61 | GAGAAACTTGTTTAAACATGCACAAAAAAAAAAAAA [TGCATGCA_site340] | 6.82
62 | TATATGGAAAATTAAAGTACTAAAGAATAAATAGAA [XGTACX_site8796] | 6.61
63 | TATAAAATAAATTGTGCACACATATTTATAAATATG [CACACA_site2330] | 10.5
64 | TATAGATACATATACACACACACACCGACATATATA [CACACA_site9138] | 7.03
65 | AATATATGTTTAATTTCACACACAAATATACATTTT [CACACA_site9385] | 6.56
66 | ATATATATATATATATGTACACATATACGCTTTTTC [XGTACX_site3838] | 9.34

Row | Sequence | gcPBM binding intensity (ln)
67 | TACTCCTTAAATATATGTAAAGGAAGAAAAAAAAAA [XGTACX_negctrl_site306] | 6.37
68 | TTGTTTCTACAATTTAATAAAATACGTTTTCAAAAA [XGTACX_negctrl_site377] | 5.99
69 | ACAATAAAAATAAAAAGTACAAATAAAAAAAATAAA [XGTACX_site6718] | 6.87
70 | TTTGAGATAAAAGACTGTACTTAGAATGTATAAAAA [XGTACX_site203] | 6.17
71 | ATATATATATATATATGTACATAAATATTTTAAAAT [XGTACX_site4980] | 9.43
72 | TTTAATTTTATATAGAGTACAAAAAAATAGAAAGAT [XGTACX_site3870] | 7.13
73 | AAAAAAAAAAAAAACTGTACCAAAAAGAATATATAC [XGTACX_site8345] | 6.51
74 | TAAAATATAAAACACACACACATATATATATATATT [CACACA_site224] | 6.75
75 | ATCCTCTTTACAATATGTACATAAATATATATTTAT [XGTACX_site8001] | 7.45
76 | TATATATATAAATACACACACATATATATATATATA [CACACA_site4867] | 9.33
77 | TATATATTTTTATTATGTACATATTAACAATGTGTT [XGTACX_site879] | 6.41
78 | TATTTATTTATTTATTTATTTATTTATTTATATTTA [CACACA_negctrl_site398] | 6.64
79 | TATAATAATACGTATTGTACTATTAGGTTAATTCGT [XGTACX_site264] | 6.22
80 | ACTTGTAAGAAACACACACACACACCCATATATATA [CACACA_site796] | 6.96
81 | TCTATAAAGGAATATACACACATATATATATATATA [CACACA_site410] | 9.4
82 | TTTTCTTGTAAATTACGTACGAATGTGTAGAGAAAT [XGTACX_site1339] | 7.1
83 | AAGTAAAATAAGTATACACACATAAATATATATATA [CACACA_site685] | 8.54
84 | TATATATATATTTAGTGTACTTAAAAAAAATAATAA [XGTACX_site5454] | 8.25
85 | TATTTTTTTTTCCATTGTACATTTTTGATATTTTTC [XGTACX_site744] | 6.75
86 | ATAATAATAAAATATATATACAAAGGTGAAATTATA [TGCATGCA_negctrl_site197] | 6.83
87 | TTATTAAATATGTACACACGTACATTTTATAAATGA [CACACA_site2387] | 6.1
88 | TTCTTTAAAAAATTCGATAAAAAAAAAAAAAGAAAA [CACACA_negctrl_site242] | 6.17
